Data published in paper PMC4336329 (PLoS ONE, 2015).
Among all 310,000 compounds or so, about 2,200 (0.71%) showed an effect of 50% or more. The effect is printed as a negative number. The list shows a part of the results.

target: human ether-à-go-go-related gene (hERG) potassium channel (human, UniProt Q12809); assay: primary screen, population patch clamp on CHO cells stably expressing hERG
Sequence (Q12809 whole entry, looked up): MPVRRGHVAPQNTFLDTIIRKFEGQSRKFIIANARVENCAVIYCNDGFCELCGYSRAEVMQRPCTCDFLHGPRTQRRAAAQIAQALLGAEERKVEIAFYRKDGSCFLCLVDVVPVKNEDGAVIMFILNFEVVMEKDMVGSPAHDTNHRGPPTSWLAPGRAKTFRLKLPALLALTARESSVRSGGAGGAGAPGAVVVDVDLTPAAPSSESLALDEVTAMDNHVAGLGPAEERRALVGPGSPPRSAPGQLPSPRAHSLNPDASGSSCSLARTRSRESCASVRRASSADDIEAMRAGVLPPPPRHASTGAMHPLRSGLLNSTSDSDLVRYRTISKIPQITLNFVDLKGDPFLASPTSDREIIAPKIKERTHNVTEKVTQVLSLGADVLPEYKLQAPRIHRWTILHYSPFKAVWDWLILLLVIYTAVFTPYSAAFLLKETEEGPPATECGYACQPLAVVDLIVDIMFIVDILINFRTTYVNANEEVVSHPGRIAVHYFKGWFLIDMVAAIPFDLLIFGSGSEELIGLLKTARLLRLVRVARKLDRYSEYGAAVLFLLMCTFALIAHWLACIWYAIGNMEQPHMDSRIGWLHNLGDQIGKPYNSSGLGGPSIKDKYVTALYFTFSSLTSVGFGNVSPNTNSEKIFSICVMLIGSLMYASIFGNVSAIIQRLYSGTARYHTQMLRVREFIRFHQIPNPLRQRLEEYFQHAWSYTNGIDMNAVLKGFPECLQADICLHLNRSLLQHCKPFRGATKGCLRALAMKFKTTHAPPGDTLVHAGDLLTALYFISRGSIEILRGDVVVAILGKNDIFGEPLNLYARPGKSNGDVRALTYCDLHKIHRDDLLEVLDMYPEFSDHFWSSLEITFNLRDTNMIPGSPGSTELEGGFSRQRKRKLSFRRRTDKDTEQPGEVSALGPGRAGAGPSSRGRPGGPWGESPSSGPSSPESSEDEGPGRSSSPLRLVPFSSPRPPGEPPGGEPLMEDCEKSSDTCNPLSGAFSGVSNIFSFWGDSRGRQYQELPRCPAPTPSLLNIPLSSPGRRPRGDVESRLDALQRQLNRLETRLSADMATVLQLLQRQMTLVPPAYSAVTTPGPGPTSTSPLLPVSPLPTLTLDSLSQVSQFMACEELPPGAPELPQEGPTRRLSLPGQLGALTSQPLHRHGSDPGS

Compound	hERG current change (%, negative = inhibition) at 1uM
O=C(NCCNC(=O)c1cc(OCC(F)(F)F)ccc1OCC(F)(F)F)Nc1cccc(C(F)(F)F)c1	-0.74%
O=C(Nc1cccc([N+](=O)[O-])c1)Nc1ccc2c(c1)CCC2	12.1%
CCCC(=O)c1ccc(N2CCN(S(=O)(=O)c3ccccc3)CC2)c(F)c1	11.3%
Cc1ccc(NC(=O)C(=O)N2CCCC2)cc1Cl	17.6%
Cc1ccc(-n2c(=S)[nH]c3c(oc4ccccc43)c2=O)cc1	13%
O=C(O)c1ccc(COc2ccccc2/C=C2/NC(=O)N(c3cccc(Cl)c3)C2=O)cc1	6.51%
CCOc1ccccc1CNC(=O)C1CCC(=O)N1C(C)C (stereo not drawn)	8.34%
COc1cc(C(=O)N[C@H](C(=O)NC(C)C23CC4CC(CC(C4)C2)C3)C(C)C)cc(OC)c1OC (stereo partly drawn)	14%
CN(C)S(=O)(=O)c1ccc(Cl)c(NC(=O)COC(=O)CN2C(=O)C3CCCCC3C2=O)c1 (stereo not drawn)	5.32%
CN(C)S(=O)(=O)c1ccc(/C(O)=C2/C(=O)C(=O)N(Cc3cccnc3)C2c2cccs2)cc1 (stereo not drawn)	7.27%
CCOC(=O)C1=C(C)NC(=O)NC1c1ccc(-c2ccc(F)cc2)o1 (stereo not drawn)	-8.73%
Cc1cccc(C)c1NC(=O)c1ccccc1C(=O)O	8.61%
CCCc1cc(=O)oc2c3c(cc(OCC(=O)NCCCn4ccnc4)c12)OC(C)(C)CC3	-33%
O=C(CN(c1ccc(F)cc1)S(=O)(=O)c1ccc2c(c1)OCCO2)N1CCOCC1	8.45%
CC(C)[C@H](NS(=O)(=O)c1ccc(Cl)cc1)C(=O)OCC(=O)c1c(N)n(C)c(=O)n(C)c1=O	-9.36%
CS(=O)(=O)c1ccc(NCC2CCCO2)c([N+](=O)[O-])c1 (stereo not drawn)	15.1%
CCOc1cc2c3c(c1)C1(Nc4ccccc4S1)C(=O)N3C(C)(C)CC2C (stereo not drawn)	12.1%
Fc1ccccc1Cn1nnc2c(NCc3ccccn3)ncnc21	-1.34%
CCC(=O)Nc1nnc(SCCN2CCOCC2)s1.Cl	20.8%
Clc1ccc(CSc2ccc(-c3ccco3)nn2)cc1	12.8%
Cc1ccc2[nH]c3c(=O)n(CC(=O)NCc4ccco4)ncc3c2c1	14.1%
Cc1cc(C)cc(N2C(N)=NC(N)=NC2c2ccccc2F)c1.Cl (stereo not drawn)	10.3%
Fc1cccc(Nc2ncnc3c2cnn3-c2ccccc2)c1	15.8%

Compound	hERG current change (%, negative = inhibition) at 1uM
O=c1c(-c2ccccc2)cnc2n1CCS2	-1.6%
Cc1ccc(S(=O)(=O)NC(=NC2CCCCC2)c2ccccc2)cc1	-26.8%
CCOC(=O)C1=C(CN2CCN(C(=O)OCC)CC2)NC(=O)NC1c1ccc2c(c1)OCO2 (stereo not drawn)	-5.46%
COc1ccc(CNC(=O)c2ccc(SC)cc2OC)cc1	8.14%
Cn1c2c(c(=O)n(C)c1=O)CN(CCN1CCNCC1)CN2	1.08%
COC(=O)c1cc2n(n1)CCCNC2=O	14.1%
COCCCN(C(=O)CCOc1ccccc1C)c1c(N)n(Cc2ccccc2)c(=O)[nH]c1=O	15.3%
O=C1c2ccccc2C(=O)N1c1cccc(-c2nc3ccccc3o2)c1	12.1%
CCCCn1c(O)c(C(CC)=NCc2ccco2)c(=O)[nH]c1=O	5.95%
CCCCOCC(O)CCc1n[nH]c(=S)n1-c1ccccc1 (stereo not drawn)	16.5%
[N-]=[N+]=NCCN1CCN(CCc2ccccc2)CCC1=O	11.7%
COc1cc(OC)c(C2SCCS2)c(OC)c1	3.79%
CCOC(=O)c1c(NC(=O)CCCN2CCOCC2)sc2c1CC(C)(C)OC2	4.64%
O=C(CCNS(=O)(=O)c1ccc(Br)cc1)NC1CCN(Cc2ccccc2)CC1	-19.7%
COc1cc(NC(=O)CC(C)S(=O)(=O)c2cc3c(cc2C)NC(=O)CO3)cc(OC)c1OC (stereo not drawn)	8.71%
O=C1C2C3C=CC(C3)C2C(=O)N1CNc1ccccc1 (stereo not drawn)	13.9%
O=C(Nc1ccccc1Cl)Nc1ccnn1C1CCN(C(=O)CCN2CCCO2)CC1	18.4%
O=C(NCc1ccccc1)c1cc(-n2cnnc2)ccc1Cl	5.53%
O=C(Cn1cnc2sc3c(c2c1=O)CCCC3)NCC(=O)Nc1c(F)cccc1F	-2.27%
OC1c2cc(Br)ccc2N=C2CCCN21 (stereo not drawn)	7.94%
CN(CCOc1ccc(CC2SC(=O)NC2=O)cc1)c1ccccn1.O=C(O)/C=C\C(=O)O (stereo not drawn)	6.3%
O=C(C1CCCN(c2nnc(-n3cccc3)s2)C1)N1CCC2(CC1)OCCO2 (stereo not drawn)	-0.521%
COc1cc2c(C(=O)N3CCN(c4ccccc4)CC3)c(C)oc2cc1Br	4.92%

Compound	hERG current change (%, negative = inhibition) at 1uM
CCOC(=O)c1c(C)[nH]c(C)c1S(=O)(=O)N1CCOCC1	12%
COc1ccc(-n2c(Cn3c(=O)sc4ccccc43)nnc2SCC(=O)N2CCOCC2)cc1	6.43%
CC(C)N1CC(O)=C(c2nc3ccccc3[nH]2)C1=N	1.91%
CC1CCCN(CCOCCOc2ccc(Cl)cc2Br)C1.O=C(O)C(=O)O (stereo not drawn)	-31.8%
CCOC(=O)Cc1csc(NC(=O)CS(=O)(=O)Cc2ccccc2)n1	11.1%
c1n[nH]c(NCc2ccc3c(c2)OCO3)n1	2.01%
CCOc1ccccc1NC(=O)C1C2C=CC(C2)C1C(=O)O (stereo not drawn)	15.1%
CC1(C)c2[nH]c3ccccc3c2C[C@@H]2C(=O)N(Cc3ccccc3)C(=O)N21	24.9%
CCCS(=O)(=O)N1CCC(C(=O)NCCCOC)CC1	5.16%
COc1ccccc1CCC(=O)N(C)C1CCCN(Cc2ccccc2F)C1 (stereo not drawn)	4.21%
Cc1c(C(=O)CN2CCSCC2)c2ccccc2n1C	-10.7%
NNC(=O)c1cc(-c2ccc(N)cc2)nc2ccc(Br)cc12	15.6%
O=C(COC(=O)c1c(Cl)cccc1Cl)NC1CCCCC1	11.1%
Cc1ccsc1C(=O)C1CCCN(Cc2sc(N(C)C)nc2Cl)C1 (stereo not drawn)	8.76%
Cc1ccccc1OCC(O)Cn1c(NCc2ccco2)nc2c1c(=O)n(C)c(=O)n2C (stereo not drawn)	2.07%
COc1cccc(-c2c(-c3cc(OC)cc(OC)c3)n(C)c3ccc(Br)cc23)c1	10.8%
Cc1ccccc1C(=O)NC(=S)Nc1sc2c(c1C#N)CCC(C)C2 (stereo not drawn)	8.73%
COCCCNC(=O)CC(NS(=O)(=O)c1ccc(Cl)cc1)c1ccc(OC)cc1 (stereo not drawn)	7.54%
CCc1cccc(NC(=S)N(CCN(C)C)C2CCN(C(C)C)CC2)c1	14.3%
COc1cccc2c1OC1(C)CC2NC(=O)N1c1cccc(C(=O)N2CCN(c3ccccn3)CC2)c1 (stereo not drawn)	12.6%
O=C(O)CCN1C(=O)C2C3c4ccccc4C(c4ccccc43)[C@@H]2C1=O (stereo partly drawn)	1.03%
C=CCNC(=O)c1cc(-c2ccccc2O)on1	10.6%
COc1cccc(C(=O)Nc2nnc(-c3ccccc3)s2)c1OC	11.7%

Compound	hERG current change (%, negative = inhibition) at 1uM
COc1ccccc1CNc1nc2nc(C)c(Cl)c(=O)n2[nH]1	3.72%
CCSC1=NN1c1cc(C)nc(N)n1	5.22%
COc1ccc(Oc2cc(C(F)(F)F)nc(N(C)C)n2)cc1	11.8%
COc1cccc(CC(=O)n2nc(N)c3cc4ccc(OC)cc4nc32)c1	7.61%
CCN(CC)CCCOc1ccc(C)cc1Br	-45.3%
Cc1ccc(CNC(=O)[C@@H](NC(=O)Cc2ccccc2)C(C)C)cc1	11.9%
Cc1cc(=O)nc2c3ccccc3n(C(C)C(=O)NCCN3CCOCC3)n12 (stereo not drawn)	11.2%
COc1ccc(CNC(=O)COC(=O)C2CCC(C(C)(C)C)CC2)cc1 (stereo not drawn)	14.8%
O=C(CCc1nnc(C2CCCCC2)o1)N1CCC(Oc2cccnc2)CC1	19.6%
O=C(COC(=O)Cc1c[nH]c2ccccc12)Nc1ccccc1	11.7%
O=S(=O)(c1ccccc1)N1CCN(Cc2cccc(Br)c2)CC1	17.8%
O=C(CCNC(=O)c1ccccc1Cl)NC1=NCCS1	9.35%
Cc1nc2scc(C)n2c(=O)c1S(=O)(=O)N1CCN(c2ccccc2)CC1	0.702%
CCn1c(-c2cc(Br)ccc2O)n[nH]c1=S	13.8%
Cc1cc(C)cc(Oc2coc3cc(OC(=O)c4cccnc4)ccc3c2=O)c1	13.5%
CC(=O)Nc1ccc(S(=O)(=O)NC(C)C(=O)NCC(c2ccco2)N2CCCCC2)cc1 (stereo not drawn)	6.37%
CC(NC(=O)c1cc(F)c(F)c(F)c1F)c1ccc(-n2ccnc2)cc1 (stereo not drawn)	-37.3%
CCCCCCN=C(C)c1c(O)n(CCCC)c(=O)[nH]c1=O	6.09%
Cc1cccc(NC(=S)N/N=C/c2cccc([N+](=O)[O-])c2)c1	-2.16%
O=C(OCc1c(F)cccc1Cl)c1cnc2ccccc2n1	15.4%
CC1C(c2ccccc2)N(C)C(c2ccccc2)CC1(O)c1ccccc1 (stereo not drawn)	5.03%
